Test results reported in publication PMC4336329 (PLoS ONE, 2015).
Screen size: about 310,000 compounds; about 14,000 (4.5%) showed an effect of 50% or more. Effects have a minus sign here. This is one part of the list.

target: human ether-à-go-go-related gene (hERG) potassium channel (human, UniProt Q12809); test: primary screen, population patch clamp on CHO cells stably expressing hERG
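Also: peak tail current of the secondary pulse compared with the same well before compound.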

human ether-à-go-go-related gene (hERG) potassium channel, sequence (Q12809 whole entry, looked up): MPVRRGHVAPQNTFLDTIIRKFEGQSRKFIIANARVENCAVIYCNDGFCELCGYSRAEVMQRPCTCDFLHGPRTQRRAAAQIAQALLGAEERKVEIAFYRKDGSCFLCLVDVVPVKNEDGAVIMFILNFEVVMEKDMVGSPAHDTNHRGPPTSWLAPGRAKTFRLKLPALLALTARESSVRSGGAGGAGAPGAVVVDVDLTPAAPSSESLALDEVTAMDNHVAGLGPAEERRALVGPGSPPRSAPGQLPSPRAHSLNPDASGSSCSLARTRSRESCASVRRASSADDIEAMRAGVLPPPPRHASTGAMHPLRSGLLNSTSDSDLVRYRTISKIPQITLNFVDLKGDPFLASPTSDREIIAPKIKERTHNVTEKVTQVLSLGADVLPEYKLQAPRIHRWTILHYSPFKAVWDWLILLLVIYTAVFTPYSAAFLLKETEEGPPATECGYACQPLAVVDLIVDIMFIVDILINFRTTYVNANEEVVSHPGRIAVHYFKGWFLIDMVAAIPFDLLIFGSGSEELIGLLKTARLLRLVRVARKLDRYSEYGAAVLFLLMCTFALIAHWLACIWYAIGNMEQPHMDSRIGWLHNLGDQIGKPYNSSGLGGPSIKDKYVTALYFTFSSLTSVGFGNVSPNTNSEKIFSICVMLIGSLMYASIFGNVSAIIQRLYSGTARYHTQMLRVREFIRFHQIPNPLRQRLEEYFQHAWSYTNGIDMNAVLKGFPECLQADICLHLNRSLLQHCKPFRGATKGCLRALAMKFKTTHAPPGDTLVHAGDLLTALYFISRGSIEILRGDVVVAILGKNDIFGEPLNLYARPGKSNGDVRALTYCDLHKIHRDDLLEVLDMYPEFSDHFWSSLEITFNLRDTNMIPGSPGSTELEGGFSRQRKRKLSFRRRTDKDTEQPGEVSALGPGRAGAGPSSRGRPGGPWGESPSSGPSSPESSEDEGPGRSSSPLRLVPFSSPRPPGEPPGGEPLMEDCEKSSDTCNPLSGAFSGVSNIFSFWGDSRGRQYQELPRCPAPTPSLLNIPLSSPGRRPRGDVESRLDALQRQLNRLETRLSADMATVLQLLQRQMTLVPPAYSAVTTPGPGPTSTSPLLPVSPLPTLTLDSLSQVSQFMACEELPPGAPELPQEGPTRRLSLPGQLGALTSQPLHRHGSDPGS

SMILES | hERG current change (%, negative = inhibition) at 10uM
COc1ccccc1C(CNC(=O)CSc1ccc2ccccc2c1)N(C)C (stereo not shown) | -34.9%
Cc1ccc(NC(=O)CSc2n[nH]c(-c3ccncc3)n2)cc1 | -17.3%
COC(=O)c1ccc(N2CCN(C(C)=O)CC2)c(NC(=O)c2cccnc2)c1 | 0.267%
CCN(CC)S(=O)(=O)c1ccc(NS(=O)(=O)c2cccs2)cc1 | -11%
COCC1CCCN(Cc2cn(-c3ccccc3)nc2-c2ccc3c(c2)OCO3)C1 (stereo not shown) | -65.7%
Brc1ccc(-c2cnco2)cc1 | 5.95%
CN1CCN(c2ccc([N+](=O)[O-])cc2C(=O)c2ccc(Cl)cc2)CC1 | -67.4%
COc1ccc(NS(=O)(=O)c2cccc(C(=O)N/N=C(\C)c3ccncc3)c2)cc1 | -12.7%
O=C(NCc1ccc2c(c1)OCO2)c1cccc2c1C(=O)N(C1CCCCC1)C2 | 12%
CCc1cc2c(N[C@@H](C)C(=O)O)ncnc2s1 | 1.08%
CCNC(=O)COc1ccc(F)cc1C(=O)c1cnn(-c2ccccc2)c1 | -15.3%
Cc1ccc(C)c(S(=O)(=O)Nc2ccc(C(=O)N3CC(C)OC(C)C3)cc2)c1 (stereo not shown) | -5.28%
CCOC(=O)n1c(O)c(N=NC(N)=S)c2cc(C)ccc21 | 16.7%
CCC1CCCCN1Cc1nc2c(c(=O)n(C)c(=O)n2C)n1CC(C)C (stereo not shown) | 1.79%
COc1ccc(N2C(=O)c3ccccc3NC23CCC(C)CC3)cc1 (stereo not shown) | 4.35%
Cc1ccc(NC(=O)CSCC(=O)Nc2ccc(S(=O)(=O)N3CCCC3)cc2)cc1 | -19.9%
O=C(Nc1ccccc1F)c1cc2nc(C(F)F)cc(C(F)F)n2n1 | -5.76%
Cn1c(=O)[nH]c(=O)c2c1[nH]c(=S)n2Cc1ccccc1 | 17.5%
CN(C)C(=O)c1c2c(nc3ccccc13)-c1ccccc1CC2 | -7.35%
O=C1CSC(=Nc2ccc(O)cc2)N1c1ccc(O)cc1 | 4.11%

SMILES | hERG current change (%, negative = inhibition) at 10uM
COc1ccc(/C=N/n2c(-c3cccs3)n[nH]c2=S)cc1 | 11.6%
O=C(O)C(=O)O.S=C(NCC1CCCO1)N1CCN(Cc2ccccc2)CC1 (stereo not shown) | -1.99%
COc1ccc(NC(=O)N2CCc3ccccc32)cc1 | 1.67%
Cc1cc(=O)[nH]c2cc(O)ccc12 | -5.54%
Cc1ccc(-n2c(-c3cccs3)nc3ccccc3c2=O)cc1 | 11.1%
CC(Oc1ccc(Br)cc1)C(=O)Nc1ccc(S(=O)(=O)Nc2nccs2)cc1 (stereo not shown) | 5.19%
Nc1c(-c2ccccc2)c(CN2CCOCC2)nn1-c1ccc(F)cc1 | -20.3%
C=CCOC(=O)Nc1snnc1C | -1.38%
Cc1cccc2cc(C#N)c(NCCNC(=O)COc3ccccc3)nc12 | 30.8%
COc1ccc(/C=N/NC(=S)Nc2ccccc2)cc1COc1cccc(C)c1C | 19.5%
O=C(CSCc1ccccc1Cl)NNC(=O)c1ccccc1 | -3.8%
O=C(NC(=S)Nc1ccccc1N1CCCCC1)c1cccs1 | 6.21%
Cc1ccccc1C(=O)NCCc1nnc(SCC(=O)Nc2nc(-c3ccccc3)cs2)n1C | 7.36%
O=C(CN1C(=O)CCC1=O)Nc1ccc2c3c(cccc13)CC2 | -15.2%
COc1ccc(NC(=O)c2cccnc2Nc2ccc(OC)cc2)cc1 | 13.6%
O=C1CCC(=O)N1CN(C(=O)c1ccco1)c1ccc(Cl)c(Cl)c1 | 3.11%
O=C(O)Cn1cc(/C=C2\C(=O)NC(=O)N(Cc3ccco3)C2=O)c2ccccc21 | 9.37%
COc1ccccc1C(=O)NNC(=O)C(=O)NC1CCCCC1 | 22%
CC(=O)Nc1ccc(C(=O)NCC(=O)OCc2c(F)cccc2Cl)cc1 | 15.7%
Cc1nn(Cc2ccccc2Cl)c2sc(C(=O)NCCCn3ccnc3)cc12 | -82.6%

SMILES | hERG current change (%, negative = inhibition) at 10uM
COc1ccc(NC(=O)Nc2cc(C)cc(C)c2)cn1 | 8.94%
CO/N=C(\Cn1ncc(NC2CCCCC2)c(Br)c1=O)c1ccc(Cl)cc1 | -6.29%
Cc1n[nH]c(=O)c2c(NC(=O)CSc3nncs3)oc(C)c12 | 15.7%
CC(C)(C#CC(O)(c1ccccc1)c1ccccc1)N1CCCCC1 | -27.2%
CCc1nc(N2CCNCC2)c(C#N)c2c1CSC(C)(C)C2 | 2.02%
O=C(Nc1c(F)cc(F)cc1Br)c1cc(-c2ccc(O)cc2)on1 | -19.3%
COc1ccc(C(=O)NCC(c2ccc(F)cc2)N2CCOCC2)cc1S(=O)(=O)N1CCCC1 (stereo not shown) | 1.8%
CCc1nc(SCC(=O)NCc2ccc(F)cc2)c2c(=O)n(C)c(=O)n(C)c2n1 | 6.45%
CC(=O)OCC(=O)Nc1ccccc1C | 5.52%
Cc1ccc(OCC(=O)Nc2ccc(N3CCCC3)cc2)cc1C | -1.44%
COc1cc(/C=N/NC(=O)c2cccc([N+](=O)[O-])c2)ccc1OCc1ccc(C)cc1 | -2.21%
O=S(=O)(c1cccs1)N1CCC(Cc2ccccc2)CC1 | 6.58%
CCC1CCCCN1C(=O)CSc1nc2ccsc2c(=O)n1Cc1ccccc1 (stereo not shown) | -78.3%
O=C(COc1ccccc1[N+](=O)[O-])N/N=C/c1ccc[nH]1 | -4.77%
CSc1ncccc1C(=O)N1CCCC(C(=O)c2ccc3ccccc3c2)C1 (stereo not shown) | -19.8%
Brc1ccc2c(c1)OCCOCCOc1cc(Br)ccc1OCCOCCOCCO2 | -4.86%
COc1cccc(CNC(=S)Nc2cc(C)ccc2C)c1 | 18.8%
Cc1ccc(CN2CC(C(=O)Nc3ccc(C)cn3)CC2=O)cc1 (stereo not shown) | -3.71%
